According to publication PMC6919601, “Identification of Plasmodium dipeptidyl aminopeptidase allosteric inhibitors by high throughput screening” (PLoS ONE, 2019):
The whole screen tested about 110,000 compounds, of which about 230 (0.21%) showed an effect of 50% or more. The list shows a part of the results.

These compounds were tested against DPAP1 (Plasmodium falciparum, UniProt Q8IIJ9) (assay: primary screen, percent inhibition; read by cleavage of a fluorogenic dipeptide substrate; higher = more effect of the substance).
Set-up: species or system P. falciparum D10 trophozoite lysates; single well
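Note: 30 min substrate incubation versus DMSO and 10 µM JCP410 controls.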

Sequence of DPAP1 (Q8IIJ9 whole entry, looked up): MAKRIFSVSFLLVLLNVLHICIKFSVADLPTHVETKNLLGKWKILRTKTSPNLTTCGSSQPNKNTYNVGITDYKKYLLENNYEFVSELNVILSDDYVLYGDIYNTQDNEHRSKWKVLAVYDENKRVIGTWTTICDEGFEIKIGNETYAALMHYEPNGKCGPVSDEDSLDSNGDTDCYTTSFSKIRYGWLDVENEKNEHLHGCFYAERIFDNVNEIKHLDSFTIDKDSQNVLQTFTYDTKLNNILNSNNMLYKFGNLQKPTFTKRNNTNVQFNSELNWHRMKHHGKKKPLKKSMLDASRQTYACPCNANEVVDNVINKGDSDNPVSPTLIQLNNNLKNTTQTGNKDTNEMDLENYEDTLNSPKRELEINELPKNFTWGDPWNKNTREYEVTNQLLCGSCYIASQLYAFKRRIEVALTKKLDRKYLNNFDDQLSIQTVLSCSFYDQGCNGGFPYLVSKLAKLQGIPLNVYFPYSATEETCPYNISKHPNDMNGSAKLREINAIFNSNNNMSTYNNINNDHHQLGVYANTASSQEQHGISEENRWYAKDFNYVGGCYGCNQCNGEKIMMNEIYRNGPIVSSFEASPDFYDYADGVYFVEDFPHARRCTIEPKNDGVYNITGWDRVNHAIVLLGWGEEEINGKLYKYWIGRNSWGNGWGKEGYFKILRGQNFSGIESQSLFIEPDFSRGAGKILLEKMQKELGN

Structure (SMILES) | % Inhibition @ 10 uM [%]
CC(=O)c1ccc2[nH]c3c(c2c1)CCCC3 | -10.6
Cn1c(=O)c2c(nc(NC3CCCCC3)n2Cc2ccc(F)cc2)n(C)c1=O | 2.09
CC(=O)c1cc(-c2ccc(F)cc2)n(CC(=O)NC2CCN(Cc3ccccc3)CC2)c1C | -3.64
COC(=O)c1ccc(Oc2nc(NC(C)C)nc(NC(C)C)n2)cc1 | -0.467
Cc1cc(=O)n2nc(N3CCCC(C(=O)NCc4ccco4)C3)sc2n1 (centres unmarked) | -3.79
CCC(=O)n1nc(-c2ccc(Cl)cc2)nc1NCc1ccco1 | 2.31
CN(C)c1ccc(C2C(C#N)=C(N)Oc3[nH]nc(-c4ccccc4)c32)cc1 (centres unmarked) | -2.77
CC[n+]1c(C)n(CC(O)COCC2CC=CCC2)c2ccccc21 (centres unmarked) | 0.147
O=C(NCC1c2ccccc2CCN1C(=O)CN1CCOCC1)C1CCCCC1 (centres unmarked) | -4.96
CC(C)(CO)Nc1nc(NCc2ccco2)nc(N2CCOCC2)n1 | 2.05
CCOc1ccc(CCNc2nc(-c3ccc(OC)cc3)no2)cc1OCC | 5.09
CCN(CC)c1ccc(NC(=O)c2nn(C)cc2Cl)cc1 | -1.44
Cc1cc(NS(=O)(=O)c2ccc(NC(=O)C(F)(F)F)cc2)nc(C)n1 | -4.21
O=C(CN1CCN(Cc2cccc(Cl)c2)C1=O)N1CCC(Cc2ccccc2)CC1 | -0.426
COc1ccc(O)c(C2Nc3ccccc3N=C3CC(C)(C)CC(O)=C32)c1 (centres unmarked) | -4.67
Cc1cc(C)c(C)c(S(=O)(=O)NCc2ccc(C(=O)N3CCOCC3)cc2)c1C | 3.65
Cc1cccc(CN2C(=O)N/C(=C/c3cn(C)c4ccccc34)C2=O)c1 | -7.61
O=C(c1ccco1)N1CCN(Cc2c[nH]c3ccccc23)CC1 | 0.147
COc1cc2c(cc1OC)C(C(=O)N(C)C1CCCCC1)C(c1cccs1)N(C)C2=O (centres unmarked) | -6.51
CCOc1ccccc1/C=c1\sc2nc(-c3cccc(C)c3)nn2c1=O | -2.98
CCC(Oc1ccccc1)C(=O)NCc1ccc(S(N)(=O)=O)cc1 (centres unmarked) | -1.38
CC(C)(C)/C(O)=C/c1nc2cccnc2nc1/C=C(\O)C(C)(C)C | 1.82
N#Cc1cc2c(nc1SCC(=O)NCCc1ccccc1)CCCCC2 | 3.81
Cc1cccn2c(=O)c3cc(C#N)c(=O)n(CCc4ccccc4)c3nc12 | -0.551
COc1ccc(Br)cc1CN1CCN(C(=O)c2cccc(Cl)c2)CC1 | -7

Structure (SMILES) | % Inhibition @ 10 uM [%]
O=C(CSc1nc(-c2ccc(F)cc2)cc(C(F)(F)F)n1)NCc1ccncc1 | -0.318
Cc1ccc(Oc2cc(-n3ncc(C#N)c3N)ncn2)cc1 | -4.49
O=C(Nn1cnnc1)c1ccccc1 | 5.98
Cc1ccc(C(=O)Nc2ccc(OCC(=O)O)cc2)cc1C | 18.3
COc1cccc(NC(=O)c2ccc(Cl)c([N+](=O)[O-])c2)c1 | 3.54
CCOc1ccccc1NC(=O)C1CCCC1 | 2.27
CC(C)CN(CC(C)C)C(=O)Nc1ccccc1C(F)(F)F | -5.5
N#C/C(=C\c1ccco1)C(=O)NCC1CCCO1 (centres unmarked) | 25.9
COc1ccc(-c2ccc(C=C3C(=O)N(C)C(=O)N(C)C3=O)o2)cc1Cl | 0.0719
COc1ccc(C(O)Cc2nccn2C)cc1 (centres unmarked) | 1.89
CCOc1ccc(/C=C2/SC(=O)N(CC(=O)N3CCCCC3)C2=O)c(OCC)c1 | -9.24
COc1ccc(C2(CNC(=O)c3ccco3)CCOCC2)cc1 | -1.93
CNC(=O)c1nnc(-c2ccccc2)o1 | 0.974
COc1ccc(N2CCN(C3CCN(C(C)=O)CC3)CC2)cc1 | -0.0648
COc1ccc(NC2=C(Cl)C(=O)N(c3ccccc3)C2=O)c(OC)c1 | -1.84
COc1ccc(Cn2c(=O)c3cccnc3n(CC(=O)c3ccc(Br)cc3)c2=O)cc1 | -3.44
Brc1cccc(C2N3CCCN23)c1 (centres unmarked) | 0.66
Cc1ccc(-c2nc(CS(=O)(=O)CC(=O)NCCCN(C)Cc3ccccc3)c(C)o2)cc1 | -1.89
CCSc1nc2c(c(=O)n1C1CCCCC1)C1(CCCC1)Cc1ccccc1-2 | 1.27
CC(C)Oc1ccc(C(=O)N(CCCN(C)C)c2nc3c(F)cccc3s2)cc1 | 1.25
Cc1ccc(C(C)C)c(OC(C)C(=O)N(Cc2ccco2)C2CCS(=O)(=O)C2)c1 (centres unmarked) | -1.11
O=C(Nc1cccc([N+](=O)[O-])c1)C1CC1c1ccccc1 (centres unmarked) | 3.16
CC1CCc2[nH]c3ccccc3c2C1 (centres unmarked) | -0.68
N#CC1=C(N)Oc2nc(O)nc(O)c2C12C(=O)Nc1ccccc12 (centres unmarked) | -0.0217
COc1cccc(C(=O)N2CCN(Cc3ccccc3Cl)CC2)c1 | -0.0938
